# Measurements: paper PMC6919601, “Identification of Plasmodium dipeptidyl aminopeptidase allosteric inhibitors by high throughput screening” (PLoS ONE, 2019)
# Where “and” joins values, the source holds several entries; their conditions need not be identical. Equal values may be shown once. In all, about 110,000 compounds went through this assay and about 230 (0.21%) showed an effect of 50% or more. This is one part of the list.
# Target: DPAP1 (Plasmodium falciparum, UniProt Q8IIJ9)
# Test: primary screen, percent inhibition; read by cleavage of a fluorogenic dipeptide substrate; higher = more effect of the substance
# Set-up: species or system P. falciparum D10 trophozoite lysates; single well
# 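Further: 30 min substrate incubation versus DMSO and 10 µM JCP410 controls.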
# Sequence of DPAP1 (Q8IIJ9 whole entry, looked up): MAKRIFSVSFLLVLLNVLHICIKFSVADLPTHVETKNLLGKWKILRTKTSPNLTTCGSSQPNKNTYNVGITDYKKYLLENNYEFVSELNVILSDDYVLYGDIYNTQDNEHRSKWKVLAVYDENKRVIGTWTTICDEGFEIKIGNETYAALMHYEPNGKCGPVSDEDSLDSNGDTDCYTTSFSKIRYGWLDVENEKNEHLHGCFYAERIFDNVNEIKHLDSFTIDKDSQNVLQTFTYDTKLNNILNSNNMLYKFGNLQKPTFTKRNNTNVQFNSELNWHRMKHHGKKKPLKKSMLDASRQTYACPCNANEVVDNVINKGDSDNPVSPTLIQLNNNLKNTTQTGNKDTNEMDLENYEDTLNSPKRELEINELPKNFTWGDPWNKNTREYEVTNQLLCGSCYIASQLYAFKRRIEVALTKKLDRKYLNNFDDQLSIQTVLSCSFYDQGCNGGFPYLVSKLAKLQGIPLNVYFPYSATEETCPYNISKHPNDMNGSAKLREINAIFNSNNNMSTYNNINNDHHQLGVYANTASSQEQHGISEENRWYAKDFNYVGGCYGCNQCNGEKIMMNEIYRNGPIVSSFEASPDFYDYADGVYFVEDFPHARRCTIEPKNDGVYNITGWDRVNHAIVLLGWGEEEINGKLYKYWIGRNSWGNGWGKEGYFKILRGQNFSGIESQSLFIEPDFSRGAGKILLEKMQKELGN
row,Structure (SMILES),% Inhibition @ 10 uM
1,COc1cccc(OC)c1C(=O)Nc1nc2c(s1)CCCC2,-0.865%
2,CC1CC(C)CN(Cc2csc3c2CCCC3)C1 (centres unmarked),3.88%
3,Cc1oc(-c2ccccc2F)nc1CN1CCC(C(=O)NC2CCCc3ccccc32)CC1 (centres unmarked),-2.85%
4,CCN(CCN(C)C)Cc1ccc(Br)cc1,-6%
5,CCC1CCc2c(sc(NC(=O)C3C4CCC(O4)C3C(=O)O)c2C(N)=O)C1 (centres unmarked),-2.32%
6,CCOC(=O)c1sc(NC(=O)CN2CCCCC2)c(C(=O)OCC)c1C,-2.59% and -5.39%
7,COc1ccc(CN(C)C2CCN(C)CC2)cc1OC,-4.94%
8,COc1ccc(C2(C)CCc3oc4ccccc4c3-c3oc(C)cc32)cc1 (centres unmarked),0.345%
9,COc1ccc(CN2CCC(=O)NC2=O)cc1,-5.64%
10,Cc1ccc(C(=O)NCCN2CCN(C(=O)c3ccc(C)c(C)c3)CC2)cc1C,-5.23%
11,COc1cc(C=C2C(=O)N(C)C(=O)N(C)C2=O)cc(Cl)c1OCCOc1ccc(C)cc1,-2.26%
12,COc1nc(C)nc(N(C)C(=O)NS(=O)(=O)Nc2ccc(Br)cn2)n1,-4.61%
13,COc1ccccc1-c1nc2s/c(=C\c3ccc(C)cc3)c(=O)n2n1,-2.98%
14,Clc1ccc(CN2CCN(Cc3ccccc3)CC2)cc1,1.55%
15,COc1ccccc1-c1cc(C(=O)Nc2cc(C)on2)no1,3.89%
16,Cc1[nH]c2ccc(-c3nnc(SCC(=O)NCc4ccco4)n3Cc3ccccc3)cc2c1C,-3.21%
17,CCOc1ccc(S(=O)(=O)N2CCCCC2)cc1-c1nc(O)c2c(n1)c(C(C)(C)C)nn2C,3.47%
18,CC1(C)C2CCC1(C)C(NCc1ccccc1)C2 (centres unmarked),-3.46%
19,CC(CCc1ccco1)NC(=O)Cn1ncc2c(=O)oc3ccccc3c21 (centres unmarked),-2.16%
20,O=C(NCc1ccc(Cl)cc1)c1cc2nc(C(F)F)cc(C(F)F)n2n1,4.83%
21,CCC(=O)c1cc(C(C)(C)C)c(O)c(C(C)(C)C)c1,-7.25%
22,CC(=O)C1=C(C)NC(C)=C(C(C)=O)C1c1ccccc1C,-4.76%
23,Cc1cc(-c2ccc(F)cc2)c(C#N)c(N)n1,-5.48%
24,Cc1cccc(C(=O)N(Cc2ccco2)Cc2ccccc2Cl)c1,2.89%
25,O=C(CCSc1nc2ccccc2o1)Nc1ccccc1Cl,0.408%
26,CC1CCCN(S(=O)(=O)c2cccc(-c3cn4cccnc4n3)c2)C1 (centres unmarked),0.0539%

row,Structure (SMILES),% Inhibition @ 10 uM
1,O=C(O)c1ccccc1C(=O)N1CCSC1c1ccccc1 (centres unmarked),3.18%
2,Cc1ccc(-c2cn3nc(N4CCCC(C(=O)NCCCN5CCOCC5)C4)sc3n2)cc1 (centres unmarked),-0.35%
3,COc1cccc(C(=O)Nc2cccc(F)c2)c1,-9.68%
4,CC1CCCCN1C(=O)c1cc2nc(-c3ccc(F)cc3)cc(C(F)(F)F)n2n1 (centres unmarked),-1.51%
5,Cc1c(C)n(C)c2ccc(C(=O)NCC(C)c3ccccc3)cc12 (centres unmarked),-5.89%
6,O=C(CN(c1ccc(F)cc1)S(=O)(=O)c1ccc2c(c1)OCCO2)Nc1ccc(F)cc1F,-3.65%
7,O=C(Nc1ccccn1)c1cccc(S(=O)(=O)N2CC(c3ccccc3)CC2=O)c1 (centres unmarked),4.19%
8,O=C(O)CNC(=O)/C=C\c1ccccc1,-6.4%
9,Cn1nnc(NC(=O)CSc2nnnn2-c2ccc(F)cc2)n1,2.57%
10,Cc1ccc(-c2c(C)s/c(=N\C(=O)c3ccco3)n2C)cc1,1.17%
11,Cc1cc(Cl)ccc1OCC(=O)Nc1ccc(S(=O)(=O)N2CCCC2)cc1,-8.01%
12,C=CCn1c(SC(C)CC)nc(O)cc1=O (centres unmarked),-4.91%
13,NS(=O)(=O)c1ccc(CCNC(=O)CSc2nncn3c2cc2sccc23)cc1,1.97%
14,COc1ccccc1OCc1ccc(C(=O)N2CCOCC2)o1,-4.65%
15,Cc1cc(C)nc(SCCCn2c(N3CCC(C(N)=O)CC3)nc3c2c(=O)[nH]c(=O)n3C)n1,2.41%
16,CC1=C(C(=O)OCC(C)C)C(c2ccccc2Cl)NC(=O)N1 (centres unmarked),5.92%
17,Cc1ccc(-n2nc3ccc(NC(=O)c4ccco4)cc3n2)cc1C,1.67%
18,COc1ccc(-c2nn(C)c(=O)c3ccccc23)cc1CNC(=O)NC1CCCCC1,3.72%
19,CC(=O)Nc1ccc(NC(=O)COc2cc(C)ccc2C)cc1,-1.84%
20,Cc1ccc(-c2nc(CSCC(=O)NCCN3CCN(Cc4ccccc4)CC3)c(C)o2)cc1,-4.71%
21,CCc1ccc(-n2nc(C)c3c(C)cc(=O)oc32)cc1,4.65%
22,O=C(CN1CCc2ccccc2C1)N1CCCc2c1c(=O)oc1ccc(OCc3ccccc3)cc21,-3.74%
23,CCN1CCCC1CNC(=O)c1sc2nc3n(c(=O)c2c1C)CCCCC3 (centres unmarked),0.658%
24,CCOc1ccccc1C(=O)Nc1cccc(C)c1C,-1.61%
25,CCc1ccc(Oc2nc3ccccn3c(=O)c2/C=C(\C#N)C(=O)NC2CCCCC2)cc1,4.99%
26,COc1cc(C2c3c(-c4ccccc4O)n[nH]c3C(=O)N2CCCO)cc(Br)c1O (centres unmarked),0.366%

row,Structure (SMILES),% Inhibition @ 10 uM
1,CC(C(=O)O)N(C(=O)c1ccccc1)c1ccc(Cl)c(Cl)c1 (centres unmarked),3.98%
2,C/C(=C\c1cccc2ccccc12)C(=O)c1c(C)cc(C)nc1O,-1.5%
3,c1ccc2nc3c(nc2c1)sc1nc2ccccc2n13,1.49%
4,CCOC(=O)c1c(C)oc2cc(Br)c(O)c(C=O)c12,1.39%
5,Cc1sc(NC(=O)c2ccco2)c(C(c2ccccn2)N2CCN(C)CC2)c1C (centres unmarked),6.94%
6,CC1CCC(N2CC(C)OC(C)C2)C1 (centres unmarked),1.9%
7,O=C(NC12CC3CC(CC(C3)C1)C2)c1cncc(Br)c1,3.9%
8,COC(=O)c1c(NC(=O)c2nc(SC(C)C)ncc2Cl)sc2c1CCCC2,0.758%
9,COc1ccc(NC(=O)C23CC4CC(C2)CC(n2cnc(Br)n2)(C4)C3)cc1OC,-11.9%
10,COc1ccc2nc(N3CCCC(C(=O)NC4CCCCCCC4)C3)sc2c1 (centres unmarked),1.83%
11,NS(=O)(=O)c1ccc(NS(=O)(=O)c2ccc(NC(=O)c3ccccc3)cc2)cc1,5.03%
12,O=C(O)c1cc(-c2ccc(/C=C3/NC(=O)N(Cc4ccc(Cl)cc4)C3=O)o2)ccc1Cl,-3.06%
13,COc1ccc(Br)cc1/C=C1\N=C(c2ccc(Br)o2)OC1=O,-2.23%
14,COc1cc(C2=N/C(=C\c3cccc(Cl)c3Cl)C(=O)O2)cc(OC)c1OC,-7.76%
15,CC(C)Cn1c2c(c(=N)c3c1CCC3)CCCC2,-2.65%
16,Cc1cc(C)cc(Oc2nc3ccccn3c(=O)c2/C=C(\C#N)C(=O)NCC2CCCO2)c1 (centres unmarked),-5.1%
17,COc1ccc(N2CCN(CC(O)COc3ccccc3C)CC2)cc1 (centres unmarked),-1.22%
18,Cc1sc2ncn(CC(=O)NCc3ccccc3)c(=O)c2c1-c1ccc(Br)cc1,-3.41%
19,Cn1cc(Cl)c(C(=O)NCC(=O)c2ccccc2)n1,-3.13%
20,CC1CCN(C(=O)CSc2nc3c(c(=O)n2CCc2ccccc2)SCC3)CC1,-8.38%
21,COc1ccc(CNC2CCCCC2C)cc1C (centres unmarked),-6.08%
22,C=CCSc1ncc(Cl)c(C(=O)Nc2nnc(CC)s2)n1,-2.71%
23,CC(=O)Nc1ccc(-c2nc3ccccc3o2)cc1,-7.6%
24,Fc1ccccc1C1Nc2ccccc2C2C=CCC21 (centres unmarked),2.08%
25,Cc1ccc(C2=NS(=O)(=O)N(C)C(C(=O)NC(C)c3ccccc3)=C2)cc1 (centres unmarked),0.655%
26,O=S(=O)(c1ccccc1)c1nnn2c1nc(Cl)c1ccccc12,-0.58%

row,Structure (SMILES),% Inhibition @ 10 uM
1,Cc1ccc(-c2nnc3n(CC(C)C)c(=O)c4ccccc4n23)s1,-1.72%
2,CCOc1cc(CN2CCN(c3ccc(C(C)=O)cc3)CC2)ccc1O,3.83%
3,Cc1cccc(CN2CCCC(O)C2)c1 (centres unmarked),-0.828%
4,COC(=O)C1CC2CC(CC(C(=O)OC)C23SCCS3)C1=O (centres unmarked),-1.29%
5,CCOC(=O)c1[nH]c2ccccc2c1NC(=O)/C=C/c1cc(OC)c(OC)c(OC)c1,-5%
6,Cc1ccc(CCNc2nc3ccccc3n3c(C)nnc23)cc1,-1.08%
7,O=C(CCn1cnc2onc(-c3ccc(F)cc3)c2c1=O)NCCN1CCOCC1,7.43%
8,CC1(C)Cc2c(ccc3ccccc23)C(CCN2CCCCC2)=N1,2.22%
9,CC1(C)Cc2ccccc2-c2nnc(-c3ccccc3Cl)n21,-3.44%
10,O=C(CSc1nnc(-c2ccco2)o1)NC1CCCCC1,1.86%
11,O=c1c2ccccc2n2c(-c3cccs3)nnc2n1Cc1ccc(F)cc1,3.3%
12,CCOc1ccc2ncc(S(=O)(=O)c3ccccc3)c(NCc3ccccc3)c2c1,-10.4%
13,Cc1ccc(C(=O)Nc2ccon2)cc1S(=O)(=O)N1CCOCC1,-3.53%
14,COc1ccc(Br)cc1CN1CCCC(C)C1 (centres unmarked),3.68%
15,Cc1nnc2sc(-c3ccc(C(C)(C)C)cc3)nn12,2.29%
16,COc1cc(Cc2nn[nH]n2)cc(OC)c1OC,2%
17,COc1ccc(N2C(=O)C(Cl)=C(Nc3ccc(C)cc3C)C2=O)cc1,0.658%
18,CCOCCCNC(=O)C1CCC(CNS(=O)(=O)c2ccccc2)CC1 (centres unmarked),0.718%
19,COc1ccc2c(c1OC)C(=O)N1c3ccccc3N=C(c3ccc(F)cc3)CC21 (centres unmarked),-3.19%
20,CC(C)(CO)NCc1cc(Br)ccc1OCc1ccccc1,-3.67%
21,Cc1cccc(C)c1-n1c(C)cc(/C=C2\NC(=O)NC2=O)c1C,4.83%
22,O=C(O)c1cc2cccc3c2n1CCS3,-3.53%
23,O=C(CN1C(=O)c2cccc3cccc1c23)NCCc1ccccc1,-1.28%
